Out of some 410,000 compounds screened, about 6,400 (1.6%) were called active. Inconclusive results, whose numbers are uncertain, are shown with a selection of clear calls. The call rests on the fitted dose curve; in most records, active means well fitted inhibition curve with a large enough effect; inconclusive means small, poorly fitted or top-dose-only effect; inactive means no such curve, though single readings can be large or run the other way. A potency beside an inconclusive call is a rough fit, not a confirmed value.
These compounds were tested against Glucagon-like peptide 1 receptor (Homo sapiens) (UniProt P43220) (assay: qHTS of GLP-1 Receptor Inverse Agonists (Inhibition Mode)). Details: HEK293 GLP-1R CRE-luciferase, luminescence, 24 h, GLP-1R form is constitutively active; series mostly up to 38.3 µM.
Sequence of UniProt P43220 (P43220 whole entry, looked up): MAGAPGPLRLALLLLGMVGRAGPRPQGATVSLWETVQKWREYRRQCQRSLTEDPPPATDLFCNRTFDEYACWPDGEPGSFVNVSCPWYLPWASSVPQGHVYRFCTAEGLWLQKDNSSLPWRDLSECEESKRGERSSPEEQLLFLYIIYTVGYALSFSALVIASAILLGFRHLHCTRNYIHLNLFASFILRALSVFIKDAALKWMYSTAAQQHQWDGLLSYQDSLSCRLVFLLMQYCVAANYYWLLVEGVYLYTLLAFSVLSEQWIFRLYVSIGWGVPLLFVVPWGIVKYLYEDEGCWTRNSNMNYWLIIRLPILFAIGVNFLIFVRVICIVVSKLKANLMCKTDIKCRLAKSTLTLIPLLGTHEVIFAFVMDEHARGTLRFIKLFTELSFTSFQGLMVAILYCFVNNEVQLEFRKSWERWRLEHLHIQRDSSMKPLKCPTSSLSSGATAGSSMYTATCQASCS
In short: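 Seeding at 200 cells/uL, 12 h culture, 24 hr compound treatment, then luciferase reagent and a luminescence read; cells are HEK293 stably expressing a constitutively active GLP-1R plus cAMP-responsive luciferase.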
Further: nearly all actives have a fitted effect of over 55% in size.
Potency means the concentration at half of the fitted maximal effect; tags describe the fitted curve by direction and shape.

Potency, inconclusive:
Cc1cccc([C@@H]2[C@@H]3C(=O)N(Cc4ccccc4)C(=O)[C@@H]3[C@]3(Cc4ccc(Cl)cc4)C(=O)N(c4ccc(Br)cc4)C(=O)N23)c1 6.31 µM [inhibitor, partial curve, poor fit]
CCN(Cc1ccccc1)S(=O)(=O)c1cc(Br)cc2c1N(C(=O)C1CC1)CC2 28.2 µM [inhibitor, single point]
CCc1ccc(CNC(=O)CCc2nc(-c3cccs3)no2)cc1 28.2 µM [inhibitor, single point]
COc1ccc(C2NCCc3c2[nH]c2ccccc32)cc1CSc1nc2ccccc2s1 (centres undefined) 14.1 µM [inhibitor, single point]
COc1ccc(C(=O)OCc2c(-c3ccccc3)ncc3ccccc23)cc1 20 µM [inhibitor, single point]
CN(CC(=O)Nc1cccc(F)c1)C(=O)c1cn(-c2ccccc2)nc1-c1ccccc1 12.6 µM [inhibitor, partial curve, poor fit]
Cc1cc(SC#N)cc(C)c1NC(=O)CCl 1.78 µM [inhibitor, partial curve, poor fit]
C=C(C)[C@@H]1CC=C(CN2CCC(N3CCC(C(=O)N4CCCC4)CC3)CC2)CC1 7.94 µM [inhibitor, partial curve, poor fit]
COc1cccc(OC)c1C(=O)Nc1ccc(N2CCN(C(=O)c3ccco3)CC2)cc1 28.2 µM [inhibitor, single point]
CCC(C)NCCOCCOc1ccc(Cl)c(C)c1C (centres undefined) 15.8 µM [inhibitor, partial curve, poor fit]
O=C(CSc1nc2[nH]ncc2c(=O)n1-c1ccc(Cl)c(Cl)c1)NCc1ccccc1Cl 28.2 µM [inhibitor, single point]
Cc1ccc2onc(CC(=O)N3CCN(c4cccc(Cl)c4)CC3)c2c1 14.1 µM [inhibitor, single point]
CCS(=O)(=O)N1Cc2ccccc2CC1C(=O)OCC(=O)Nc1ccc(SC(F)F)cc1 (centres undefined) 22.4 µM [inhibitor, single point]
CCOC(=O)C1=CC[C@@H](c2ccc(F)cc2)N(S(=O)(=O)c2ccc(C)cc2)[C@H]1c1ccccc1 10 µM [inhibitor, partial curve, poor fit]
O=C(Cc1ccccc1F)Nc1ccc2c(c1)CCC2 28.2 µM [inhibitor, single point]
O=C(c1ccccc1Br)N1N=C(c2ccccc2)CC1c1ccccc1F (centres undefined) 11.2 µM [inhibitor, partial curve, poor fit]
CCc1ccc(OCC(=O)N2CCc3ccccc32)cc1 28.2 µM [inhibitor, single point]
CC(C)Cc1ccc(C(=O)Nc2ccc(Cc3ccncc3)cc2)o1 10 µM [inhibitor, partial curve, poor fit]
CCOC(=O)C1=C(CSc2nc3ccccc3s2)NC(=O)NC1c1ccc(OC)cc1 (centres undefined) 10 µM [inhibitor, single point]
CCN(C(=O)COC(=O)c1ccc2c(c1)OCO2)c1ccc(F)cc1 28.2 µM [inhibitor, single point]
O=[N+]([O-])c1ccc(S(=O)Cc2ccccc2)c([N+](=O)[O-])c1 (centres undefined) 5.62 µM [inhibitor, full curve, poor fit]
COc1cccc(-c2nc(CS(=O)CC(=O)NC(C)CCc3ccccc3)c(C)o2)c1 (centres undefined) 20 µM [inhibitor, partial curve, poor fit]
CC(NC(=S)NCCc1ccccc1)C(c1cccs1)N1CCN(Cc2ccccc2)CC1 (centres undefined) 12.6 µM [inhibitor, partial curve, poor fit]
CC1(C)C2CCC(C2)C1(C)NC(=O)CNC1CCCCC1 (centres undefined) 28.2 µM [inhibitor, single point]
COc1ccc(F)cc1-c1cc(C(=O)NCc2cccc(C(F)(F)F)c2)[nH]n1 20 µM [inhibitor, single point]
CCC1(c2ccc(F)cc2)NC(=O)N(CC(=O)Nc2ccc(-c3nc4ccc(C)cc4s3)cc2)C1=O (centres undefined) 11.2 µM [inhibitor, partial curve, poor fit]
Cc1ccc(NC(=O)C2(C)CCN2CCc2ccccc2)cc1 (centres undefined) 15.8 µM [inhibitor, single point]
Cn1c(Oc2ccccc2NCc2cccc(Br)c2)cc(=O)n(C)c1=O 11.2 µM [inhibitor, partial curve, poor fit]
O=C(O)c1ccccc1C(=O)NNc1ccc(F)cc1 4.47 µM [inhibitor, full curve, poor fit]
CCCCNc1c(-c2ccc(OC)c(Sc3ccc(OC)cc3)c2)nc2cnccn12 28.2 µM [inhibitor, single point]
NC(Cc1ccccc1)c1csc(Nc2ccc(C(=O)NCCCO)cn2)n1 (centres undefined) 28.2 µM [inhibitor, single point]
CC(C)c1csc(CN2CCC(CO)(Cc3ccccc3)CC2)n1 11.2 µM [inhibitor, single point]
CC(=O)c1cccc(NC(=O)c2ccc3nc(Cc4ccccc4)oc3c2)c1 11.2 µM [inhibitor, single point]
CCOC(=O)CNC(=S)N(Cc1cccs1)C1CCCCC1 8.91 µM [inhibitor, partial curve, poor fit]
O=C(NCc1ccccc1)c1noc2c1CCCCC2 20 µM [inhibitor, single point]
COc1ccc(C(=O)N/C(=C\c2cn(C)c3ccccc23)C(=O)OCCN(C)C)cc1 28.2 µM [inhibitor, single point]
COc1ccc(C2CC(c3cc(Br)ccc3F)n3nnnc3N2)cc1 (centres undefined) 28.2 µM [inhibitor, single point]
Cc1cccc(-c2ncc(CN3CCCC(CO)(Cc4ccccc4C)C3)cn2)c1 (centres undefined) 12.6 µM [inhibitor, partial curve, poor fit]
COc1ccccc1C(=O)Nc1cccc(Oc2c(F)c(F)c(F)c(F)c2F)c1 11.2 µM [inhibitor, single point]
CCCNC(=O)c1onc(CSc2ccc(Cl)cc2)c1C(=O)NCC1CC1 28.2 µM [inhibitor, single point]
Cc1ccc2c(c1)N(C(=O)CCC(=O)NCc1cccc(F)c1)CC(C)O2 (centres undefined) 20 µM [inhibitor, single point]
CN(C)c1cccc(NC(=O)C2Cc3c(-c4ccccc4Oc4ccccc4)ccnc3O2)c1 (centres undefined) 12.6 µM [inhibitor, partial curve, poor fit]
COc1ccc(CC(=O)Nc2nc3c(s2)CCCC3)cc1 12.6 µM [inhibitor, single point]
Cc1ccc(-c2nnc(NCCCO)c3ccccc23)cc1 28.2 µM [inhibitor, single point]
CN(C)c1ccc(CN2CCC(C(=O)NC(c3ccc(F)cc3)c3ccc4ccccc4n3)CC2)cc1 (centres undefined) 10 µM [inhibitor, partial curve, poor fit]
Cc1nnc(SCC(=O)N2CCC(c3noc4ccc(F)cc34)CC2)s1 2.24 µM [inhibitor, full curve]

Potency, active:
O=C(Nc1ccc2c(c1)OCO2)c1cc(C2CCCCN2C(=O)CCCc2ccccc2)on1 (centres undefined) 8.91 µM
Cc1ccc(S(=O)(=O)N(CC(=O)N2CCc3ccccc3C2)c2cccc(Cl)c2)cc1 8.91 µM

Potency, inactive:
Cc1cc(C(=O)NNC(=S)NCc2ccccc2)cs1
COc1ccc(CNC(=O)C2CCN(S(=O)(=O)c3ccc(N4CCCC4=O)cc3)CC2)cc1
COc1cc2c(cc1NCc1ccc3c(c1)OCO3)oc1ccccc12
CN(C(=O)CSc1ccc(S(=O)(=O)N2CCCCC2)cn1)c1ccccc1
Cc1ccc(CCNC(=O)c2cc(S(=O)(=O)N3CCCC3)cn2C)cc1
CCc1ccccc1NC(=O)c1ccc(S(=O)(=O)NCC2CCCO2)cc1 (centres undefined)
Cc1ccc(CN(C(=O)COc2ccccc2[N+](=O)[O-])c2ccccn2)o1
Cc1csc2nc(COC(=O)CNC(=O)c3ccccc3)cc(=O)n12
COc1ccc(N2CCN(Cc3nc4c(c(=O)[nH]c(=O)n4C)n3Cc3ccccc3C)CC2)cc1
FC(F)(F)c1cnc(Sc2nnc(-c3cccs3)n2CC2CCCO2)c(Cl)c1 (centres undefined)
CC(C)C[C@H](NC(=O)[C@@H]1Cc2ccccc2CN1C(=O)OC(C)(C)C)C(=O)NCC1CCC(C(=O)O)CC1 (some centres undefined)
CCn1c(=O)c2sccc2n2c(CCCC(=O)N3CCN(c4ccc(F)cc4)CC3)nnc12
CCOc1ccc(-c2cc3c(=O)n(CC(=O)NCc4ccc(F)cc4)ccn3n2)cc1
Cc1ccc(C(=O)C2=C(O)C(=O)N(Cc3cccnc3)C2c2cccc(Oc3ccccc3)c2)o1 (centres undefined)
O=C(O)c1cccc(S(=O)(=O)Nc2ccc3oc(=O)sc3c2)c1
COc1ccc(-c2csc(N3CCC(c4ccccc4)C3)n2)cc1 (centres undefined)

Reference: PubChem BioAssay AID624417 (National Center for Advancing Translational Sciences (NCATS), 2012)
